Test results as given in patent US6953855B2 (priority 1998, dated 2005).

The molecules below were run against T1, ganglion-type receptors (α3β4 subtype in the Shooter subclone of rat pheochromocytoma PC12 cells) (Rattus norvegicus, UniProt P04757+P12392) (assay: cell-based). Conditions: PC-12, read-out: agonist activity, % of nicotine's response (rat ganglion).
T1 construct: endogenous in cells; host or cells: rat PC12 pheochromocytoma cells (Shooter subclone)
T1 sequence (P04757 26-499): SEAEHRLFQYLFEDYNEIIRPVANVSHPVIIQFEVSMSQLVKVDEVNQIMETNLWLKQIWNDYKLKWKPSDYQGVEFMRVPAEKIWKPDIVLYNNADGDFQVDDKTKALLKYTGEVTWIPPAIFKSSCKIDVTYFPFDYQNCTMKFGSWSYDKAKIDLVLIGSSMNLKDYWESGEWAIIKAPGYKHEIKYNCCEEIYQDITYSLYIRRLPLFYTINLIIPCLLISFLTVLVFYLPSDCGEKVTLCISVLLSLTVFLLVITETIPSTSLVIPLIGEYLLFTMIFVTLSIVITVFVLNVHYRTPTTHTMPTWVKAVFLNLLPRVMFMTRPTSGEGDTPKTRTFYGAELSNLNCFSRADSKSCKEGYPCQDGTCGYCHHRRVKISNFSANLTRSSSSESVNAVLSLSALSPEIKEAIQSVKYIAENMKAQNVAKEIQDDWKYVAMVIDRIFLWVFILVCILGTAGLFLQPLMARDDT
T1 sequence (P12392 22-495 limits assumed): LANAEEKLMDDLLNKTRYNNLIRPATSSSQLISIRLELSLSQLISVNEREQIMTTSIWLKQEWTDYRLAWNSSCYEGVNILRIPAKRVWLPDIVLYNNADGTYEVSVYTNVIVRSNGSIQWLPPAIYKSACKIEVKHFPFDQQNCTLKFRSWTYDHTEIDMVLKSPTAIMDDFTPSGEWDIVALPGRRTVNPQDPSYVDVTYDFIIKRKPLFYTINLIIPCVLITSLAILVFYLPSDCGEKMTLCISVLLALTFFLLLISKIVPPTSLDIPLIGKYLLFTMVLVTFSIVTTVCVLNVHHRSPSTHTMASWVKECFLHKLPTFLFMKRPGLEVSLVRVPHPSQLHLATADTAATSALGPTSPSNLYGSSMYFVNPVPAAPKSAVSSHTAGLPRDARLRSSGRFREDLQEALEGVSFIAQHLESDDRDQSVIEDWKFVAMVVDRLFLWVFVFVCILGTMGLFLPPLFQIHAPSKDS

Structure (SMILES) | activation at 100 µM [%]
O=C(Nc1ccc(Br)cc1)OC1C2CCN(CC2)C1Cc1cccnc1 (centres unmarked) [Compound 1, 2-((3-pyridinyl)methyl)-1-azabicyclo[2.2.2]oct-3-yl N-(4-bromophenyl)carbamate] | 1 to 19
O=C(Nc1ccc(F)cc1)OC1C2CCN(CC2)C1Cc1cccnc1 (centres unmarked) [Compound 3, 2-((3-pyridinyl)methyl)-1-azabicyclo[2.2.2]oct-3-yl N-(4-fluorophenyl)carbamate] | 1 to 19
COc1ccc(NC(=O)OC2C3CCN(CC3)C2Cc2cccnc2)cc1 (centres unmarked) [Compound 4, 2-((3-pyridinyl)methyl)-1-azabicyclo[2.2.2]oct-3-yl N-(4-methoxyphenyl)carbamate] | 1 to 19
CSc1ccc(NC(=O)OC2C3CCN(CC3)C2Cc2cccnc2)cc1 (centres unmarked) [Compound 5, 2-((3-pyridinyl)methyl)-1-azabicyclo[2.2.2]oct-3-yl N-(4-methylthiophenyl)carbamate] | 1 to 19
O=C(NC1C2CCN(CC2)C1Cc1cccnc1)c1ccc(F)cc1 (centres unmarked) [Compound 8, N-(2-((3-pyridinyl)methyl)-1-azabicyclo[2.2.2]oct-3-yl)-4-fluorobenzamide] | 1 to 19
O=C(NC1C2CCN(CC2)C1Cc1cccnc1)c1cc2ccccc2o1 (centres unmarked) [Compound 9, N-(2-((3-pyridinyl)methyl)-1-azabicyclo[2.2.2]oct-3-yl)benzofuran-2-carboxamide] | 1 to 19
O=C(NC1C2CCN(CC2)C1Cc1cccnc1)c1ccc(Br)cc1 (centres unmarked) [Compound 10, N-(2-((3-pyridinyl)methyl)-1-azabicyclo[2.2.2]oct-3-yl)-4-bromobenzamide] | 1 to 19
O=C(NC1C2CCN(CC2)C1Cc1cccnc1)c1ccccc1 (centres unmarked) [Compound 13, N-(2-((3-pyridinyl)methyl)-1-azabicyclo[2.2.2]oct-3-yl)benzamide] | 1 to 19
COc1cccc(C(=O)NC2C3CCN(CC3)C2Cc2cccnc2)c1 (centres unmarked) [Compound 14, N-(2-((3-pyridinyl)methyl)-1-azabicyclo[2.2.2]oct-3-yl)-3-methoxybenzamide] | 1 to 19
O=C(NC1C2CCN(CC2)C1Cc1cccnc1)c1cccc(Br)c1 (centres unmarked) [Compound 15, N-(2-((3-pyridinyl)methyl)-1-azabicyclo[2.2.2]oct-3-yl)-3-bromobenzamide] | 1 to 19
O=C(Nc1ccccc1)NC1C2CCN(CC2)C1Cc1cccnc1 (centres unmarked) [Compound 16, N-phenyl-N′-(2-((3-pyridinyl)methyl)-1-azabicyclo[2.2.2]oct-3-yl)urea] | 1 to 19
O=C(Nc1ccc(Oc2ccccc2)cc1)NC1C2CCN(CC2)C1Cc1cccnc1 (centres unmarked) [Compound 17, N-(4-phenoxyphenyl)-N′-(2-((3-pyridinyl)methyl)-1-azabicyclo[2.2.2]oct-3-yl)urea] | 1 to 19
CSc1ccc(NC(=O)NC2C3CCN(CC3)C2Cc2cccnc2)cc1 (centres unmarked) [Compound 18, N-(4-methylthiophenyl)-N′-(2-((3-pyridinyl)methyl)-1-azabicyclo[2.2.2]oct-3-yl)urea] | 1 to 19
O=C(Nc1cccc(F)c1)NC1C2CCN(CC2)C1Cc1cccnc1 (centres unmarked) [Compound 19, N-(3-fluorophenyl)-N′-(2-((3-pyridinyl)methyl)-1-azabicyclo[2.2.2]oct-3-yl)urea] | 1 to 19
O=C(Nc1ccc(Br)cc1)NC1C2CCN(CC2)C1Cc1cccnc1 (centres unmarked) [Compound 20, N-(4-bromophenyl)-N′-(2-((3-pyridinyl)methyl)-1-azabicyclo[2.2.2]oct-3-yl)urea] | 1 to 19
COc1ccccc1NC(=O)NC1C2CCN(CC2)C1Cc1cccnc1 (centres unmarked) [Compound 21, N-(2-methoxyphenyl)-N′-(2-((3-pyridinyl)methyl)-1-azabicyclo[2.2.2]oct-3-yl)urea] | 1 to 19
COc1ccc(NC(=O)NC2C3CCN(CC3)C2Cc2cccnc2)c(OC)c1 (centres unmarked) [Compound 22, N-(2,4-dimethoxyphenyl)-N′-(2-((3-pyridinyl)methyl)-1-azabicyclo[2.2.2]oct-3-yl)urea] | 1 to 19
O=C(Nc1ccc(Cl)c(Cl)c1)NC1C2CCN(CC2)C1Cc1cccnc1 (centres unmarked) [Compound 23, N-(3,4-dichlorophenyl)-N′-(2-((3-pyridinyl)methyl)-1-azabicyclo[2.2.2]oct-3-yl)urea] | 1 to 19
COc1ccc(NC(=O)NC2C3CCN(CC3)C2Cc2cccnc2)cc1 (centres unmarked) [Compound 24, N-(4-methoxyphenyl)-N′-(2-((3-pyridinyl)methyl)-1-azabicyclo[2.2.2]oct-3-yl)urea] | 1 to 19
CN(C)c1ccc(NC(=O)NC2C3CCN(CC3)C2Cc2cccnc2)cc1 (centres unmarked) [Compound 25, N-(4-dimethylaminophenyl)-N′-(2-((3-pyridinyl)methyl)-1-azabicyclo[2.2.2]oct-3-yl)urea] | 1 to 19
CN(C(=O)Nc1ccccc1)C1C2CCN(CC2)C1Cc1cccnc1 (centres unmarked) [Compound 26, N-phenyl-N′-methyl-N′-(2-((3-pyridinyl)methyl)-1-azabicyclo[2.2.2]oct-3-yl)urea] | 1 to 19
CN(C(=O)Nc1ccc(Br)cc1)C1C2CCN(CC2)C1Cc1cccnc1 (centres unmarked) [Compound 27, N-(4-bromophenyl)-N′-methyl-N′-(2-((3-pyridinyl)methyl)-1-azabicyclo [2.2.2]oct-3-yl)urea] | 1 to 19
O=C(C=Cc1ccccc1)NC1C2CCN(CC2)C1Cc1cccnc1 (centres unmarked) [Compound 28, N-(2-((3-pyridinyl)methyl)-1-azabicyclo[2.2.2]oct-3-yl)3-phenylprop-2-enamide] | 1 to 19
O=C(C=Cc1ccc(Cl)cc1)NC1C2CCN(CC2)C1Cc1cccnc1 (centres unmarked) [Compound 29, N-(2-((3-pyridinyl)methyl)-1-azabicyclo[2.2.2]oct-3-yl)-3-(4-chlorophenyl)prop-2-enamide] | 1 to 19
O=C(C=Cc1ccc(Br)cc1)NC1C2CCN(CC2)C1Cc1cccnc1 (centres unmarked) [Compound 30, N-(2-((3-pyridinyl)methyl)-1-azabicyclo[2.2.2]oct-3-yl)-3-(4-bromophenyl)prop-2-enamide] | 1 to 19
O=C(C=Cc1cccc(O)c1)NC1C2CCN(CC2)C1Cc1cccnc1 (centres unmarked) [Compound 31, N-(2-((3-pyridinyl)methyl)-1-azabicyclo[2.2.2]oct-3-yl)-3-(3-hydroxyphenyl)prop-2-enamide] | 1 to 19
COc1cccc(C=CC(=O)NC2C3CCN(CC3)C2Cc2cccnc2)c1 (centres unmarked) [Compound 32, N-(2-((3-pyridinyl)methyl)-1-azabicyclo[2.2.2]oct-3-yl)-3-(3-methoxyphenyl)prop-2-enamide] | 1 to 19
O=C(C=Cc1ccccc1F)NC1C2CCN(CC2)C1Cc1cccnc1 (centres unmarked) [Compound 33, N-(2-((3-pyridinyl)methyl)-1-azabicyclo[2.2.2]oct-3-yl)-3-(2-fluorophenyl)prop-2-enamide] | 1 to 19
O=C(C=Cc1ccccc1O)NC1C2CCN(CC2)C1Cc1cccnc1 (centres unmarked) [Compound 34, N-(2-((3-pyridinyl)methyl)-1-azabicyclo[2.2.2]oct-3-yl)-3-(2-hydroxyphenyl)prop-2-enamide] | 1 to 19
